# The source holds more than one record for some entries. The list is limited to them. An entry can have further records. The values listed for one entry are repeated measurements in other runs, samples, wells, individuals or studies. Additions like (4×) count equal records among those shown. Results filed as inconclusive are left out. How the source made its calls, unless noted: active means hit-call score of the fitted dose curve at least 0.9, where 1 is the maximum; inconclusive means response in the unintended direction; inactive means score below 0.9.
# Columns and labels:
# [1] = ATG_DR4_LXR_CIS: Attagene CIS-FACTORIAL HepG2 Assay for human Liver X Receptor (LXR), DR4 submotif (AID 2282929; active means hit-call score of the fitted dose curve at least 0.9, where 1 is the maximum; inactive means score below 0.9); conditions: HepG2 Attagene DR4 cis-reporter, mRNA transcription; actives raise or lower the signal
# In short: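 Endogenous factor activity at a DR4 cis-element is read as reporter mRNA in transiently transfected HepG2 cells. Exposure lasts 24 h; transcripts are amplified, fluorescently labelled and sized by capillary electrophoresis, with DMSO as baseline.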
# [2] = target: human Retinoid X Receptor beta (RXRb), RXRB (gene 6257) (UniProt P28702); assay: ATG_RXRb_TRANS: Attagene TRANS-FACTORIAL HepG2 Assay for human Retinoid X Receptor beta (RXRb) (AID 2283013)
# UniProt P28702, sequence (P28702 whole entry, looked up, the tested form may be a part): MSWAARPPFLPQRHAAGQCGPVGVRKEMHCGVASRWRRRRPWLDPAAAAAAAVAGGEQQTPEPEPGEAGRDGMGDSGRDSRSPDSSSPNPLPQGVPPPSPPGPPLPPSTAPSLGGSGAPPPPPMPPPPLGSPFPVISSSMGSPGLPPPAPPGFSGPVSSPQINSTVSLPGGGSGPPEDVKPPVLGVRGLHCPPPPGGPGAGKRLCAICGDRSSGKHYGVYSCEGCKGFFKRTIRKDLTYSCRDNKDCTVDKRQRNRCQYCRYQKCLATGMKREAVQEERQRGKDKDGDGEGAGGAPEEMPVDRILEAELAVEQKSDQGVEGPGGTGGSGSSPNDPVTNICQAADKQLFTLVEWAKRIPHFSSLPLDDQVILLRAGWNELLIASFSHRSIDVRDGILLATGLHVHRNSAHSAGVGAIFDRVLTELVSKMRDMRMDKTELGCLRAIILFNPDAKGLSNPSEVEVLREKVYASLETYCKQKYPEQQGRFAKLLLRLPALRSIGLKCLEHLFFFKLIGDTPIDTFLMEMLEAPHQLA
# In short: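 HepG2 cells were transiently transfected with multiplexed GAL4-UAS reporters and a chimeric RXRb-Gal4 construct, then exposed for 24 h. Reporter mRNA was quantified by RT-PCR, FAM labeling, HpaI digestion and capillary electrophoresis; gain of signal was scored against DMSO.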
# [3] = ATG_MRE_CIS: Attagene CIS-FACTORIAL HepG2 Assay for human Metal Responsive Element (MRE) (AID 2282954; active means hit-call score of the fitted dose curve at least 0.9, where 1 is the maximum; inactive means score below 0.9); conditions: HepG2 MRE cis-reporter transcription, Attagene multiplex; actives raise or lower the signal
# In short: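 Step one: transfect HepG2 with cis-regulated reporter units. Step two: dose 24 h. Step three: isolate RNA, RT-PCR, 6-FAM label, HpaI digest, capillary electrophoresis. Fit bidirectionally to DMSO.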
# [4] = target: Estrogen receptor (Homo sapiens) (UniProt P03372); assay: NVS_NR_hER: NovaScreen (NVS) Nuclear Receptor Binding Assay for human Estrogen Receptor (ER) (AID 2283348)
# In short: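 Cell-free radioligand binding with protein extracted from MCF7 cells; scintillation counting 18 hours after dosing. Loss of signal versus DMSO baseline read as displacement; primary single-concentration screen at 25 uM in duplicate, actives retested in concentration series.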
# [5] = target: Estrogen receptor (Homo sapiens) (UniProt P03372); assay: OT_ER_ERaERa_1440: Odyssey Thera (OT) 24-hour HEK293T Protein-Complementation Assay for Estrogen Receptor-alpha/-alpha Homodimer (AID 2283349);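 further: hits raise fluorescence above DMSO for agonists and antagonists alike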
# In short: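 Readout is the rise in mean fluorescence from reporter fragment complementation when ERα LBD (aa 310-547) units dimerize in HEK293T cells. Measured 24 h after dosing and analysed as increase over DMSO control.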
# [6] = target: Estrogen receptor (Homo sapiens) (UniProt P03372); assay: OT_ER_ERaERa_0480: Odyssey Thera (OT) 8-hour HEK293T Protein-Complementation Assay for Estrogen Receptor-alpha/-alpha Homodimer (AID 2283351);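 further: rise in fluorescence from reassembled reporter fragments on ERα LBD homodimer in nucleus or whole cell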
# In short: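 The readout is complementation of fragments fused to the human ER alpha ligand-binding domain (aa 310-547), stably expressed in HEK293T cells. After 8 h of exposure, the increase in nuclear/cytoplasmic fluorescence was measured by laser scanning cytometry and fitted relative to DMSO.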
# [7] = target: T1, Estrogen receptor (Homo sapiens) + Estrogen receptor beta (Homo sapiens) (UniProt P03372+Q92731); assay: OT_ER_ERaERb_0480: Odyssey Thera (OT) 8-hour HEK293T Protein-Complementation Assay for Estrogen Receptor-alpha/-beta Heterodimer (AID 2283352)
# In short: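 Increase in mean fluorescence intensity, measured by laser scanning plate cytometry, reported ER-alpha/ER-beta LBD complementation in HEK293T cells after 8 h chemical exposure. DMSO served as baseline; basal signal is low, punctate and cytoplasmic.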
# [8] = target: T1, Estrogen receptor (Homo sapiens) + Estrogen receptor beta (Homo sapiens); assay: OT_ER_ERaERb_1440: Odyssey Thera (OT) 24-hour HEK293T Protein-Complementation Assay for Estrogen Receptor-alpha/-beta Homodimer (AID 2283356);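 further: heteromer of ER alpha and ER beta binding domains; hits raise reporter fluorescence and both agonists and antagonists give an increase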
# In short: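 Heterodimerisation of ERα (aa 310-547) and ERβ (aa 263-489) ligand binding domains was tracked as fluorescence gain in stably transfected HEK293T cells following 24 h dosing, normalised to DMSO controls.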
# [9] = target: Estrogen receptor beta (Homo sapiens) (UniProt Q92731); assay: OT_ER_ERbERb_0480: Odyssey Thera (OT) 8-hour HEK293T Protein-Complementation Assay for Estrogen Receptor-beta/-beta Homodimer (AID 2283357);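 further: active means signal gain over DMSO baseline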
# UniProt Q92731, sequence (Q92731 whole entry, looked up, the tested form may be a part): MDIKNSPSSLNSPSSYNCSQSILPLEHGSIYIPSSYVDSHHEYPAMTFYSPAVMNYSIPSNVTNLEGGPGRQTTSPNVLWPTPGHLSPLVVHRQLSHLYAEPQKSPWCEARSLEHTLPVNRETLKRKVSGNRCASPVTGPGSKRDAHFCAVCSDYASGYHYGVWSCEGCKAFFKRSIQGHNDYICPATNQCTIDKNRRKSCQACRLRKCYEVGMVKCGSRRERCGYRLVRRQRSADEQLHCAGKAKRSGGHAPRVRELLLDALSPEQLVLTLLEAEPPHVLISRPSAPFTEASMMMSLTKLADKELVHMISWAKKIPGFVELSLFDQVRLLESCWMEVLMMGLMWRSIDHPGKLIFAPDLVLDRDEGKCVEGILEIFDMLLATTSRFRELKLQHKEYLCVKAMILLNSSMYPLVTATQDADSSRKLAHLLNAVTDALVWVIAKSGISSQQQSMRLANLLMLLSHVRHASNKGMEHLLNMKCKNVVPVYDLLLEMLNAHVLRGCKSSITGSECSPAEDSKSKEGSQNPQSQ
# In short: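 Readout: increase in mean fluorescence intensity (nucleus for agonists; nucleus plus cytoplasm for antagonists) relative to DMSO, from a reporter-fragment complementation of human ER-beta LBD homodimer in HEK293T cells dosed 8 hours.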
# [10] = target: mouse Estrogen Receptor alpha (Era), Esr1 (gene 13982) (UniProt P19785); assay: NVS_NR_mERa: NovaScreen (NVS) Nuclear Receptor Binding Assay for mouse Estrogen Receptor alpha (Era) (AID 2283378);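 further: hit means loss of bound radioligand signal relative to DMSO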
# UniProt P19785, sequence (P19785 whole entry, looked up): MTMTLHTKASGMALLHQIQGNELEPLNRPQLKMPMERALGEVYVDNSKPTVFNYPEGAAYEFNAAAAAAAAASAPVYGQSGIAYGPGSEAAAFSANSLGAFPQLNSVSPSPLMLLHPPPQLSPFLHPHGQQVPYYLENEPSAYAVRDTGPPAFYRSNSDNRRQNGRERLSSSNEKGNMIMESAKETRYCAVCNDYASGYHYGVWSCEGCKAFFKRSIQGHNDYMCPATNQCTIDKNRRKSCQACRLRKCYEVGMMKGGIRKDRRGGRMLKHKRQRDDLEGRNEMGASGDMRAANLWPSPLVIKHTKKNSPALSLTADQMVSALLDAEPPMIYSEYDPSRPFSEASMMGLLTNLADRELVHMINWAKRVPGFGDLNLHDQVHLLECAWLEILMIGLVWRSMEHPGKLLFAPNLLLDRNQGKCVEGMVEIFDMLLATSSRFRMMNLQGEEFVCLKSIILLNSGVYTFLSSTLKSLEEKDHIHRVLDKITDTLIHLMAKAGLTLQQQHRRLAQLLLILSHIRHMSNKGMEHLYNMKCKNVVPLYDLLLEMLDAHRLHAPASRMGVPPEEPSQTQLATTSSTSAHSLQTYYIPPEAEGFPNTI
# In short: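 Test chemicals competed against a specific radioligand for binding to cell-free mouse Era. Duplicate wells at 25 uM were read 18 hours later by filter-based radiodetection, with loss of signal against DMSO scored as activity.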
# [11] = target: Estrogen receptor beta (Homo sapiens) (UniProt Q92731); assay: OT_ER_ERbERb_1440: Odyssey Thera (OT) 24-hour HEK293T Protein-Complementation Assay for Estrogen Receptor-beta/-beta Homodimer (AID 2283380);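 further: fluorescence gain from ER beta LBD homodimer complementation read by laser scanning cytometry; scored as signal increase over DMSO baseline for both agonists and antagonists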
# In short: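 HEK293T cells stably expressing human ER-beta LBD (aa 310-547) PCA homodimer pair, dosed 24 h; formaldehyde-fixed, Draq5-stained. Readout: increase in nuclear (agonist) or nuclear plus cytoplasmic (antagonist) fluorescence intensity versus DMSO, gain-of-signal fitting.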
# [12] = target: Estrogen receptor (Homo sapiens) (UniProt P03372); assay: OT_ERa_GFPERaERE_0480: Odyssey Thera (OT) 8-hour HeLa Transcription Induction Assay for Estrogen Receptor (AID 2283381; active means hit-call score of the fitted dose curve at least 0.9, where 1 is the maximum; inactive means score below 0.9)
# In short: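 HeLa cells expressing GFP reporter under estrogen response element, imaged 8 h after dosing. GFP induction quantified by high-content fluorescence microscopy image analysis; gain of signal fitted versus DMSO.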
# [13] = ATG_PXRE_CIS: Attagene CIS-FACTORIAL HepG2 Assay for human Pregnane X Receptor Element (PXRE) (AID 2282957; active means hit-call score of the fitted dose curve at least 0.9, where 1 is the maximum; inactive means score below 0.9); conditions: HepG2 Attagene CIS-FACTORIAL PXRE reporter, mRNA; actives raise or lower the signal
# In short: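 Transiently transfected HepG2 cells were dosed and incubated for 24 h. RNA was then isolated, DNase-treated, reverse-transcribed and reporter sequences amplified. Labeled, HpaI-digested fragments were quantified by capillary electrophoresis against DMSO.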
# [14] = ATG_VDRE_CIS: Attagene CIS-FACTORIAL HepG2 Assay for human Vitamin D Receptor Element (VDRE) (AID 2282968; active means hit-call score of the fitted dose curve at least 0.9, where 1 is the maximum; inactive means score below 0.9); conditions: HepG2 VDRE cis-reporter transcription, actives raise or lower the signal
# In short: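 RT-PCR/CE readout of reporter mRNA; HepG2, transient transfection, 24 h dosing; DMSO baseline; bidirectional analysis.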
# [15] = target: Androgen Receptor/SRC-1 Co-activator, AR (gene 367) (UniProt P10275); assay: OT_AR_ARSRC1_0960: Odyssey Thera (OT) 16-hour HEK293T Protein-Complementation Assay for Androgen Receptor/SRC-1 Co-activator (AID 2283353);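 further: actives raise the signal above DMSO so potency reflects increased AR and SRC-1 complex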
# UniProt P10275, sequence (P10275 whole entry, looked up, the tested form may be a part): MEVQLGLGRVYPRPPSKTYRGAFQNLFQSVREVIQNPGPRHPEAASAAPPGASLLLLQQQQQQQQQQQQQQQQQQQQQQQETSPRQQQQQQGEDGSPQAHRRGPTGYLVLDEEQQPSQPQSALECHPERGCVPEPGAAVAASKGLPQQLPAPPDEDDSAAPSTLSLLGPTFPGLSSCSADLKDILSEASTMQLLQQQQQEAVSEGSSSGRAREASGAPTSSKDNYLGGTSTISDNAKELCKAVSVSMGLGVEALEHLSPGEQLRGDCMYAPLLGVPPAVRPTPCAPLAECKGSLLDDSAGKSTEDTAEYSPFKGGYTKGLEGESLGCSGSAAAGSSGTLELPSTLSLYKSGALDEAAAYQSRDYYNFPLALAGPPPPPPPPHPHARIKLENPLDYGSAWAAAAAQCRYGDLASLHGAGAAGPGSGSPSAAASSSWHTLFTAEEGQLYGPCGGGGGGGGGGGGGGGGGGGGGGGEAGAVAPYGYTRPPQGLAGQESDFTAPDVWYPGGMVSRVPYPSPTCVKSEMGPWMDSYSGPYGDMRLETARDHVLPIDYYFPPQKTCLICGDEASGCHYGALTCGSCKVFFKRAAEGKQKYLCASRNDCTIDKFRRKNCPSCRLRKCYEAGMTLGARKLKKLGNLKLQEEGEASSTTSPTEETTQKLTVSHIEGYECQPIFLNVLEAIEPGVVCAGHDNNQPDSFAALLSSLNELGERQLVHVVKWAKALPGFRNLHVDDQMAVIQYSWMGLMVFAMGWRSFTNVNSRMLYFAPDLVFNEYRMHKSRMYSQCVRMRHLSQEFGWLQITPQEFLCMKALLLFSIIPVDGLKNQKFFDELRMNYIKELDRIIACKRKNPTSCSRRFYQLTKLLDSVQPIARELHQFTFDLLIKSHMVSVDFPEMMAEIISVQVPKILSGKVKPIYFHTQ
# In short: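 HEK293T cells stably expressing AR and SRC-1 fused to Venus YFP fragments, imaged 16 h after dosing. Nuclear/cytoplasmic fluorescence ratio at 488 nm from at least 400 cells per image; gain of signal relative to DMSO.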
# [16] = target: bovine Estrogen Receptor (ER), ESR1 (gene 407238) (UniProt P49884); assay: NVS_NR_bER: NovaScreen (NVS) Nuclear Receptor Binding Assay for bovine Estrogen Receptor (ER) (AID 2283345);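 further: actives lower the bound radioligand count which means they displace the ER ligand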
# UniProt P49884, sequence (P49884 whole entry, looked up): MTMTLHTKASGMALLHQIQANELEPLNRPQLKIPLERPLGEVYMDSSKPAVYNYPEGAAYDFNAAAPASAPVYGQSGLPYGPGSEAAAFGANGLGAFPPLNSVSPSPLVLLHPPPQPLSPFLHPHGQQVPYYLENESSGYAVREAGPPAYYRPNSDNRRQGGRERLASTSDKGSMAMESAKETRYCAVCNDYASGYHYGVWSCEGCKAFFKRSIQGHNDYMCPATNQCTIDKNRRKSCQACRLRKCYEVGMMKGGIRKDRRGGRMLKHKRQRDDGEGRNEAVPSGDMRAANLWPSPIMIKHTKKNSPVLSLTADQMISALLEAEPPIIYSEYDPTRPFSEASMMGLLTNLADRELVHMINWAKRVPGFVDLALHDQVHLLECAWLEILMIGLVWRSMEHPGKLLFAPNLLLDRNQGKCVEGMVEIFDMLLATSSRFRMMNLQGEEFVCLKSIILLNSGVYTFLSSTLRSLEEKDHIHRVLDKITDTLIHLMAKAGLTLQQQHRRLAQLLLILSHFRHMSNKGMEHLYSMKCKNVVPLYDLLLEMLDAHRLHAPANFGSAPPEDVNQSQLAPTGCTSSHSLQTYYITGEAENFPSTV
# In short: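 Bovine uterine membranes; tritiated or iodinated radioligand; competitive displacement; 18 h; scintillation read; DMSO negative control; 25 uM duplicates, then concentration series for actives.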
smiles,measurement,setting,value
Clc1ccc(C(c2ccccc2Cl)C(Cl)(Cl)Cl)cc1 (stereo not drawn),AC50,[1],"active: 19, 7.09, 16.8, 42.6 µM [separate samples]"
same,AC50,[2],"active: 15.4, 4.26, 11.8, 11.4 µM [separate samples]"
CCC(C)(c1ccc(O)cc1)c1ccc(O)cc1,AC50,[3],"active: 53.4, 12.2, 44.3, 22.7 µM [separate samples]"
same,AC50,[4],"active: 43.4, 17.9, 16.8, 12.2, 284 nM [separate samples]"
same,AC50,[5],"active: 505 nM, 544 nM, 12.5 µM, 10.5 µM, 10.1 µM [separate samples]"
same,AC50,[6],"active: 419 nM, 442 nM, 2.16 µM, 1.84 µM, 1.42 µM [separate samples]"
same,AC50,[7],"active: 287 nM, 226 nM, 477 nM, 489 nM, 1.2 µM [separate samples]"
same,AC50,[8],"active: 241 nM, 232 nM, 1.34 µM, 1.08 µM, 916 nM [separate samples]"
same,AC50,[9],"active: 101, 111, 26.3, 20.9, 19.3 nM [separate samples]"
same,AC50,[10],"active: 24.8, 22.3, 8.74, 6.11, 227 nM [separate samples]"
same,AC50,[11],"active: 125, 145, 48.2, 12.5, 11.2 nM [separate samples]"
same,AC50,[12],"active: 235, 295, 108, 70.3, 263 nM [separate samples]"
C[C@]12CCC(=O)C=C1CC[C@@H]1[C@@H]2CC[C@@]2(C)[C@H]1CC[C@]2(C)O,AC50,[13],"active: 24.6, 8.23, 15.4, 24.9 µM [separate samples]"
CCC(=O)O[C@H]1CC[C@H]2[C@@H]3CCC4=CC(=O)CC[C@]4(C)[C@H]3CC[C@]12C,AC50,[14],"active: 31, 43.6, 21.5, 70.6 µM [separate samples]"
same,AC50,[15],"active: 9.2, 7.03, 8.72, 30 nM (3×) [separate samples]"
Oc1ccc(C(c2ccc(O)cc2)(C(F)(F)F)C(F)(F)F)cc1,AC50,[16],"active: 50, 185, 110, 97.6, 78.5 nM [separate samples]"
same,AC50,[10],"active: 21.8, 66, 22.5, 5.36, 13.3 nM [separate samples]"
CC(C)(c1ccccc1)c1ccc(O)cc1,AC50,[4],"active: 847 nM, 1.79 µM, 5.27 µM, 12.7 µM [separate samples]"

# Source: PubChem BioAssay (EPA / NIEHS)
